# Source: PubChem BioAssay (Tox21)
# Values joined by “and” are separate entries in the source; they are usually repeats but may differ in a detail not shown here. Equal values may be shown once. The shares of active, inactive and inconclusive entries below differ from those in the screen. For some of these results: Potencies beside an inconclusive call are fits to weak or partial responses and may not hold up. Some structures have more than one record in an assay (separate samples or runs), and their calls can disagree. Active and inactive are the calls of the source. Unless noted, calls follow the shape of the dose curve; as a rule, active = well fitted curve in the direction sought with a large enough effect in the repeat runs; inconclusive = weak or mixed curves; inactive = no such curve, though single readings can be large; an effect the other way counts as inactive or inconclusive.
# Tests used:
# [1] = biological target: Acetylcholinesterase (Homo sapiens) (UniProt P22303); assay: Acetylcholinesterase (AChE) small molecule antagonists: colormetric cell-based qHTS assay (AID 1347395; calls by dose curve; also: nearly all actives have a fitted effect of over 30% in size)
# Chain of UniProt P22303 (P22303 whole entry, looked up): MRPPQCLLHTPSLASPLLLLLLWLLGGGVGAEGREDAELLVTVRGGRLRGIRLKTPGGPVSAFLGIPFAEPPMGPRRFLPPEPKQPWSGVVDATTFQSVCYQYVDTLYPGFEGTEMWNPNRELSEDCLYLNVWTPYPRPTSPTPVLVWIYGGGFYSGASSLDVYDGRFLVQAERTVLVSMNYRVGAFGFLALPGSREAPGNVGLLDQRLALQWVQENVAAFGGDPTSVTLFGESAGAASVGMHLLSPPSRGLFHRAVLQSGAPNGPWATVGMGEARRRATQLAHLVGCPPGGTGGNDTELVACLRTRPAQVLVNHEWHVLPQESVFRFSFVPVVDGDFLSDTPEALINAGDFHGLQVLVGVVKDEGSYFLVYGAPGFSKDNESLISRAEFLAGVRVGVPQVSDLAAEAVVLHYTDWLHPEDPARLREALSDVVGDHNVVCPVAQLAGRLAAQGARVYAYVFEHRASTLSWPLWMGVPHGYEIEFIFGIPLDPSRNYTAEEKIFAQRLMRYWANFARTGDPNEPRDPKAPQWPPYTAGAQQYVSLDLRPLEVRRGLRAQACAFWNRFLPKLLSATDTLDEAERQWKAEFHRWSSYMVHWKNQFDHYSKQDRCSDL
# How it was run: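 SH-SY5Y cells, plated overnight at 37 C, were exposed to compounds for 30 min at 37 C and 5% CO2. Acetylthiocholine plus DTNB was then added, and thiocholine from endogenous AChE was quantified colorimetrically after 90 min at 37 C.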
# [2] = biological target: Cytochrome P450 2D6 (Homo sapiens) (UniProt P10635); assay: Cytochrome P450 Family 2 Subfamily D Member 6 (CYP2D6) small molecule antagonists: luciferase reporter qHTS assay (AID 1671196); also: nearly all actives have a fitted effect of over 50% in size
# Chain of UniProt P10635 (P10635 whole entry, looked up): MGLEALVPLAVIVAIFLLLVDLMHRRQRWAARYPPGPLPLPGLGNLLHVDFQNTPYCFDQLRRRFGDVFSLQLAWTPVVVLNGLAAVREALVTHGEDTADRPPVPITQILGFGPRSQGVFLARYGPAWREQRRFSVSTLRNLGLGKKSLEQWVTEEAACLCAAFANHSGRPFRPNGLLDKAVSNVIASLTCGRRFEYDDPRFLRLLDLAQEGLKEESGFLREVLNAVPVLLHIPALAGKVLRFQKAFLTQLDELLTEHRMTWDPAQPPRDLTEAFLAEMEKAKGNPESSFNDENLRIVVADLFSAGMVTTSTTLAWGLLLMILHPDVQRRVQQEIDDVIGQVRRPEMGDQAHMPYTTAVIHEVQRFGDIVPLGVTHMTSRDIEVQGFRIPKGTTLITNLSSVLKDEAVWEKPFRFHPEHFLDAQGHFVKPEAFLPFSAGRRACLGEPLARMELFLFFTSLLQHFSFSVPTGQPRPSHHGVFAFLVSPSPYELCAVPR
# How it was run: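 Enzyme and proluciferin substrate were first combined with test chemical for 10 min at room temperature. Adding NADPH regeneration solution started a 1 h reaction, stopped with luciferin detection reagent and read by luminescence 20 min later.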
# [3] = biological target: Cytochrome P450 2C19 (Homo sapiens) (UniProt P33261); assay: Cytochrome P450 Family 2 Subfamily C Member 19 (CYP2C19) small molecule antagonists: luciferase reporter qHTS assay (AID 1671197); also: nearly all actives have a fitted effect of over 65% in size
# Chain of UniProt P33261 (P33261 whole entry, looked up): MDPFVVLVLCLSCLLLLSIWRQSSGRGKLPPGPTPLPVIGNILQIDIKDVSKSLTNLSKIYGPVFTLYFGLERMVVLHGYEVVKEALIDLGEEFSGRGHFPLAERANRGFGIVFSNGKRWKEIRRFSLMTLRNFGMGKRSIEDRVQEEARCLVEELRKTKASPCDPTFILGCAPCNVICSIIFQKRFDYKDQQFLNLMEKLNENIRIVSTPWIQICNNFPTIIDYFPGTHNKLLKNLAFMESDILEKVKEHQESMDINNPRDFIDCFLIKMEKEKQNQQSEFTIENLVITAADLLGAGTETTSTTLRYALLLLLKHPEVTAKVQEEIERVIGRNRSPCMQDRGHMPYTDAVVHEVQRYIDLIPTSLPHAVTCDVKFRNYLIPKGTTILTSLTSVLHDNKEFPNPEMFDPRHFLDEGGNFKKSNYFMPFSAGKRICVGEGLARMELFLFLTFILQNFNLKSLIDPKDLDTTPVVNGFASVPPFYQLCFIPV
# How it was run: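 Relative luminescence units recorded 20 min after the detection reagent stopped a 1 h, 37C CYP2C19 reaction on proluciferin substrate, which was started by NADPH regeneration following 10 min room-temperature compound preincubation; ketoconazole positive control.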
# [4] = biological target: Nuclear receptor subfamily 1 group I member 2 (Homo sapiens) (UniProt O75469); assay: Human pregnane X receptor (PXR) small molecule agonists, qHTS assay (AID 1346982); also: nearly all actives have a fitted effect of over 35% in size
# How it was run: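 Cells: HepG2 stably carrying PXR-Luc. Medium held 5% charcoal-stripped FBS. Compounds in DMSO added after 5 hr plating, incubated 24 hr, then luminescence quantified with ONE-Glo.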
# [5] = biological target: Nuclear receptor subfamily 1 group I member 2 (Homo sapiens) (UniProt O75469); assay: Human pregnane X receptor (PXR) activation by small molecules, qHTS assay (AID 1346985); also: nearly all actives have a fitted effect of over 40% in size
# How it was run: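 DPX-2 cells (HepG2 co-transfected with a PXR response element and a CYP3A4-promoter luciferase construct) were seeded at 2,000 per well, rested 5 hr at 37C, then exposed to DMSO-dissolved compounds for 24 hr. Activation was read as luciferase luminescence.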
# [6] = biological target: Acetylcholinesterase (Homo sapiens) (UniProt P22303); assay: Acetylcholinesterase (AChE) small molecule antagonists: fluorescence cell-based qHTS assay (AID 1347398; calls by dose curve; also: nearly all actives have a fitted effect of over 50% in size); conditions: Potency: AChE activity
# How it was run: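 Cellular AChE activity read as thiocholine from acetylthiocholine hydrolysis, detected by Thiolite Green fluorescence at 490/520 nm after 40 min at room temperature. Compounds were pre-incubated 30 min at 37 C on adherent SH-SY5Y cells.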
# [7] = biological target: Nuclear receptor subfamily 1 group I member 2 (Rattus norvegicus) (UniProt Q9R1A7); assay: Rat pregnane X receptor (rPXR) activation by small molecules, qHTS assay (AID 1346983); conditions: rPXR luciferase reporter cells, One-Glo luminescence, 24 h; max activation: stronger effect = higher value; also: nearly all actives have a fitted effect of over 20% in size
# Chain of UniProt Q9R1A7 (Q9R1A7 whole entry, looked up): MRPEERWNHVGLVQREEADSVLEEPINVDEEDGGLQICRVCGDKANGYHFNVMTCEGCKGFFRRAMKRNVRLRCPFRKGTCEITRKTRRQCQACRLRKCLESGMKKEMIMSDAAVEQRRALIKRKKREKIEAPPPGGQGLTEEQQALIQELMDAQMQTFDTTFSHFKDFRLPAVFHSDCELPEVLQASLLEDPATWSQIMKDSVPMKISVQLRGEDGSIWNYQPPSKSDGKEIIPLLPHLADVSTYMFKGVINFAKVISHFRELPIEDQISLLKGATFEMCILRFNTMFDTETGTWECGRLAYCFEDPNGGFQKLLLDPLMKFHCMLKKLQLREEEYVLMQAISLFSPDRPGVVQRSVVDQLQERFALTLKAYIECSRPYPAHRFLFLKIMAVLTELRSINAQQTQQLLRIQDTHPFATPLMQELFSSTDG
# How it was run: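 Luminescent readout (One-Glo luciferase, 30 min room temperature) followed 24 hr compound treatment at 37 C of rPXR cells plated 2,000 per well and preincubated 5hr; qHTS format with compounds delivered in DMSO.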
# [8] = biological target: Nuclear receptor subfamily 1 group I member 2 (Homo sapiens) (UniProt O75469); assay: CYP3A4 induction through human pregnane X receptor (PXR) by small molecules, qHTS assay (AID 1346984); also: nearly all actives have a fitted effect of over 40% in size
# How it was run: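 Quantitative HTS in DPX-2 cells, i.e. HepG2 transfected with PXR response element and CYP3A4-promoter luciferase. Compounds in DMSO incubated 24hr at 37C; then P450-Glo CYP3A4 substrate, 3uM final, 3hr; One-Glo luminescence.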
# [9] = biological target: Acetylcholinesterase (Homo sapiens) (UniProt P22303); assay: Acetylcholinesterase (AChE) small molecule antagonists: enzyme-based qHTS assay (AID 1347397; calls by dose curve; also: nearly all actives have a fitted effect of over 55% in size); conditions: Potency: AChE enzyme activity inhibition
# How it was run: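 Colorimetric DTNB readout of acetylthiocholine hydrolysis, 10 min at room temperature, after 30 min room-temperature exposure of 50 mU/mL recombinant human enzyme to compound; DMSO vehicle control.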
# [10] = biological target: Acetylcholinesterase (Homo sapiens) (UniProt P22303); assay: Acetylcholinesterase (AChE) small molecule antagonists: enzyme-based qHTS assay with human liver microsomes (AID 1347399; calls by dose curve; also: nearly all actives have a fitted effect of over 60% in size); conditions: Potency: qHTS inhibition
# How it was run: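 Recombinant human AChE (50 mU/mL in the enzyme mix) and human liver microsomes (0.25 mg/mL final) were preincubated with compound and NADPH (0.25 mg/mL final) for 30 min at 37 C. Acetylthiocholine/DTNB was then added; thiocholine was read colorimetrically after 10 min at room temperature.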
# Potency is read from the fitted curve at half-maximal effect; tags tell the direction and shape of the fitted curve.
smiles,measurement,setting,value
COc1c(C(C)(C)C)cc([N+](=O)[O-])c(C)c1[N+](=O)[O-],Potency,[1],"inconclusive: 31.5 µM [inhibitor, partial curve]"
same,Potency,[2],"inconclusive: 39.6 µM [inhibitor, partial curve, poor fit]"
same,Potency,[3],active: 28.1 µM
Cc1ccccc1O,Potency,[4],"inconclusive: 77 µM [activator, partial curve, poor fit]"
same,Potency,[3],"inconclusive: 89.4 µM [inhibitor, single point]"
CCOc1cc(OP(=S)(OC)OC)nc(CC)n1,Potency,[4],inactive
same,Potency,[3],active: 35.6 µM
C/C=C/C=O,Potency,[4],inactive
same,Potency,[3],active: 34 µM
[N-]=[N+]=[N-],Potency,[1],"inconclusive: 43.3 µM [inhibitor, partial curve]"
CC(C)N(C(=O)SCC(Cl)=C(Cl)Cl)C(C)C,Potency,[4],"inconclusive: 38.1 µM [activator, partial curve]"
same,Potency,[2],"inconclusive: 31.3 µM [inhibitor, partial curve]"
O=C(O)c1ccccn1,Potency,[4],inactive
same,Potency,[3],"inconclusive: 91.4 µM [inhibitor, single point]"
CCN(Cc1ccc(Cl)nc1)/C(=C/[N+](=O)[O-])NC,Potency,[5],inactive
same,Potency,[6],"inconclusive: 43.6 µM [inhibitor, partial curve, poor fit]"
C#C[C@]1(O)CC[C@H]2[C@@H]3CCC4=CC(=O)CC[C@]4(C)[C@H]3CC[C@@]21C,Potency,[7],"inconclusive: 3.16 µM [activator, full curve, poor fit]"
same,Potency,[6],inactive
same,Potency,[2],"inconclusive: 28.3 µM [inhibitor, full curve]"
c1ccc2c(c1)sc1ccccc12,Potency,[4],"inconclusive: 48.6 µM [activator, partial curve, poor fit]"
same,Potency,[3],active: 39.9 µM and inactive
O=C(CBr)OCc1ccccc1,Potency,[4],inactive
same,Potency,[3],"inconclusive: 79.6 µM [inhibitor, single point]"
CNC(=O)Oc1ccc(N(C)C)c(C)c1,Potency,[4],"inconclusive: 54.5 µM [activator, partial curve]"
same,Potency,[2],"inconclusive: 44.8 µM [inhibitor, partial curve]"
COc1c2c(cc3c1OCO3)CCN(C)C2,Potency,[5],inactive
CCOC(=O)c1cncn1C(C)c1ccccc1 (stereo unspecified),Potency,[5],"inconclusive: 8.91 µM [activator, partial curve, poor fit]"
O=C1CN=C(c2ccccc2)c2cc(Cl)ccc2N1CC1CC1,Potency,[8],"inconclusive: 1.78 µM [activator, full curve, poor fit]"
same,Potency,[5],active: 2 µM
same,Potency,[9],"inconclusive: 74.5 µM [falling, single point]"
same,Potency,[2],"inconclusive: 37.4 µM [inhibitor, partial curve]"
CC(C)(CCl)C(=O)Cl,Potency,[4],"inconclusive: 38.5 µM [activator, partial curve]"
same,Potency,[2],"inconclusive: 39.9 µM [inhibitor, partial curve]"
CCOP(=S)(OCC)Oc1ncn(-c2ccccc2)n1,Potency,[1],active: 31.7 µM
same,Potency,[6],active: 35.6 µM
same,Potency,[10],active: 3.17 µM
O=C1CCCO1,Potency,[4],"inconclusive: 53.2 µM [activator, partial curve, poor fit]"
same,Potency,[2],"inconclusive: 49 µM [inhibitor, partial curve, poor fit]"
Cc1cc(C)cc(C)c1,Potency,[4],inactive
same,Potency,[2],inactive
same,Potency,[3],"inconclusive: 62.4 µM [inhibitor, partial curve, poor fit]"
CC(C)C(Br)C(=O)NC(N)=O (stereo unspecified),Potency,[5],inactive
same,Potency,[3],inactive
CCOC(=O)OC1=C(c2cc(C)ccc2C)C(=O)NC12CCC(OC)CC2 (stereo unspecified),Potency,[4],"inconclusive: 61.1 µM [activator, single point]"
same,Potency,[3],"inconclusive: 7.1 µM [inhibitor, full curve, poor fit]"
COC(=O)c1c(C(F)F)nc(C(F)(F)F)c(C2=NCCS2)c1CC(C)C,Potency,[4],active: 0.77 µM
same,Potency,[2],"inconclusive: 50.2 µM [inhibitor, partial curve, poor fit]"
CCN(CC)C(=O)/C(Cl)=C(\C)OP(=O)(OC)OC,Potency,[5],"inconclusive: 15.8 µM [activator, partial curve]"
same,Potency,[1],"inconclusive: 45.8 µM [inhibitor, partial curve] and inconclusive: 63.3 µM [inhibitor, partial curve]"
same,Potency,[6],"inconclusive: 11.5 µM [inhibitor, partial curve] and inconclusive: 28.3 µM [inhibitor, partial curve]"
same,Potency,[2],inactive
same,Potency,[3],"inconclusive: 81.5 µM [inhibitor, single point]"
C1CCC(NC2CCCCC2)CC1,Potency,[4],"inconclusive: 68.6 µM [activator, single point]"
same,Potency,[3],"inconclusive: 73.5 µM [inhibitor, partial curve, poor fit] and inconclusive: 79.6 µM [inhibitor, single point] and inconclusive: 43.6 µM [inhibitor, single point]"
N#CC(c1ccccc1)c1ccccc1,Potency,[4],"inconclusive: 48.6 µM [activator, partial curve]"
same,Potency,[2],"inconclusive: 63.3 µM [inhibitor, partial curve]"
CCCC(C)(COC(N)=O)COC(=O)NC(C)C (stereo unspecified),Potency,[1],inactive
CC(Cl)Cl,Potency,[4],inactive
same,Potency,[3],inactive
Nc1c(Cl)c(Cl)c(Cl)c(Cl)c1Cl,Potency,[4],"inconclusive: 48.6 µM [activator, partial curve, poor fit]"
same,Potency,[2],"inconclusive: 71 µM [inhibitor, single point]"
CCNc1nc(Cl)nc(NCC)n1,Potency,[4],"inconclusive: 30.8 µM [activator, partial curve, poor fit]"
same,Potency,[2],"inconclusive: 24.5 µM [inhibitor, partial curve]"
same,Potency,[3],"inconclusive: 8 µM [inhibitor, full curve]"
CC1(C)Cc2cccc(O)c2O1,Potency,[4],"inconclusive: 63.5 µM [activator, partial curve, poor fit]"
same,Potency,[3],"inconclusive: 18.5 µM [inhibitor, partial curve]"
COC(=O)/C=C(\C)OP(=O)(OC)OC,Potency,[9],active: 3.56 µM
same,Potency,[6],active: 1 µM
C[N+](C)=CCl,Potency,[9],inactive
same,Potency,[6],inactive
same,Potency,[3],inactive
CCCN(CCCl)c1c([N+](=O)[O-])cc(C(F)(F)F)cc1[N+](=O)[O-],Potency,[2],"inconclusive: 35.6 µM [inhibitor, partial curve]"
CCC(Br)(CC)C(=O)NC(N)=O,Potency,[2],"inconclusive: 35.6 µM [inhibitor, partial curve]"
CNC(C)Cc1ccccc1OC (stereo unspecified),Potency,[9],inactive
CCOC(=O)NC(C)(C)Cc1ccc(Cl)cc1,Potency,[2],"inconclusive: 21.9 µM [inhibitor, partial curve, poor fit]"
CCCCNP(N)(N)=S,Potency,[2],"inconclusive: 71 µM [inhibitor, partial curve, poor fit]"
CCCCN(CC)c1c([N+](=O)[O-])cc(C(F)(F)F)cc1[N+](=O)[O-],Potency,[6],"inconclusive: 80.9 µM [inhibitor, partial curve]"
CN(C)C(=O)Oc1cc(OC(=O)N(C)C)cc(C(O)CNC(C)(C)C)c1 (stereo unspecified),Potency,[2],active: 4.9 µM
Cc1ccc(N)cc1C,Potency,[2],active: 5.07 µM
COC(=O)Nc1cccc(OC(=O)Nc2cccc(C)c2)c1,Potency,[2],"inconclusive: 56.4 µM [inhibitor, partial curve, poor fit] and inactive"
O=C(O)CC(O)(CC(=O)O)C(=O)O,Potency,[2],inactive
CC(=NC#N)N(C)Cc1ccc(Cl)nc1,Potency,[1],"inconclusive: 44.8 µM [inhibitor, partial curve]"
same,Potency,[3],"inconclusive: 89.4 µM [inhibitor, single point]"
Clc1ccc(C(Cl)(Cl)Cl)cc1,Potency,[2],"inconclusive: 80.5 µM [inhibitor, partial curve, poor fit]"
C=C(C)C(=O)OCCCCOC(=O)C(=C)C,Potency,[9],inactive
CCNCC,Potency,[2],inactive
CN(C)P(=O)(N(C)C)N(C)C,Potency,[2],"inconclusive: 56.1 µM [inhibitor, partial curve]"
CCOC(=O)C1OC1(C)c1ccccc1 (stereo unspecified),Potency,[1],inactive
same,Potency,[3],active: 35.9 µM and active: 71 µM
C1CN2CCC1CC2,Potency,[2],"inconclusive: 34.7 µM [inhibitor, single point]"
N#CSCc1ccccc1,Potency,[6],"inconclusive: 63.5 µM [inhibitor, partial curve, poor fit]"
CN(N=O)c1ccc([N+](=O)[O-])cc1,Potency,[6],"inconclusive: 44.8 µM [inhibitor, partial curve]"
same,Potency,[2],"inconclusive: 35.6 µM [inhibitor, partial curve]"
CN(C)C(=O)Nc1ccc(Cl)cc1,Potency,[1],inactive
same,Potency,[2],"active: 9.86 µM and inconclusive: 71 µM [inhibitor, partial curve]"
same,Potency,[3],"inconclusive: 89.4 µM [inhibitor, single point]"
CC(C)(OO)c1ccccc1,Potency,[6],inactive
CCCCCCCCCl,Potency,[6],"inconclusive: 46.3 µM [inhibitor, partial curve]"
same,Potency,[3],"inconclusive: 92.3 µM [inhibitor, single point]"
Clc1ccccc1N1CCNCC1,Potency,[9],inactive
CCOP(=S)(OCC)Oc1ccc(Cl)cc1Cl,Potency,[6],"inconclusive: 28.3 µM [inhibitor, partial curve]"
same,Potency,[3],active: 0.399 µM
O=C(O)c1ccccc1C(=O)Nc1cccc2ccccc12,Potency,[2],active: 31.7 µM
COC(C)(C)CCC[C@H](C)C/C=C/C(C)=C/C(=O)OC(C)C,Potency,[2],"inconclusive: 63.3 µM [inhibitor, partial curve]"
NCCc1ccc(O)cc1,Potency,[1],active: 62.8 µM
same,Potency,[3],active: 49.9 µM and inactive
